Results on 83 variants are retold here after the RNAGym collection of RNA variant scans (doi:10.1093/nar/gkz1192).

Read counts are not given, so values of variants with three or more changes are uncertain.

The labels stand for the following.
B1: CPEB3 Ribozyme (parent)
chain: UAACAGGGGGCCACAGCAGAAGCGUUCACGUCGCAGCCCCUGUCAGAUUCUGGUGAAUCUGCGAAUUCUGCUGUAUAUCUC

In this series the parent is B1. Briefly: self-cleavage, relative activity (ratio to wild type); higher = more cleavage; in vitro, sequencing. The procedure, abridged:
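CPEB3 self-cleaving ribozyme mutant libraries were made by rounds of error-prone PCR, barcoded, and transcribed in vitro with T7 RNA polymerase for 5 hours at 37°C. Cleavage occurred during transcription and a 15 min DNase I step before EDTA stop. RNAs were reverse transcribed with template switching and Illumina-sequenced, with DNA sequencing mapping barcodes to variants. Relative activity is the variant's cleaved/total read fraction divided by wild type's (minimum 5 reads), averaged across three batches.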
With A28G C44A U58C, the self-cleavage was determined as 0.15.

A28G G30C U49C U54A: the self-cleavage is 0.11.

With A28G C39G U54A A57G, the self-cleavage was determined as 0.1.

A28U U31A G33A: the self-cleavage was found to be 0.23.

Take A28U U31G U66C U78C: the self-cleavage was found to be 0.25.

With A28G C40U U51C, the self-cleavage amounted to 0.29.

For the variant A28U A47G A57G, the self-cleavage was 0.26.

Turning to A28U U41C U58A, the self-cleavage stood at 0.15.

As to A28U U41C U58C, the self-cleavage came out at 0.23.

In the case of A28G U43C U48A U76C A77U, the self-cleavage worked out at 0.21.

A28G U49A U78C: the self-cleavage was determined as 0.19.

On to A28G U41C U48C A57G G63U A75U, for which the self-cleavage is 0.92.

In the case of A28G C39A U51A, the self-cleavage came to 0.37.

As to C29A A35U U41C, the self-cleavage worked out at 0.16.

For A28G C37U U41C A47G A75U, the self-cleavage was 0.27.

For A28U G52A U69A, the self-cleavage turned out to be 0.41.

Take A28U G36U U58A: the self-cleavage came to 0.07.

On to A28G U54C A57G, for which the self-cleavage is 0.25.

Turning to A28G U43G U49C G73A U76C, the self-cleavage is 0.09.

For A28U U58A U72C, the self-cleavage worked out at 0.24.

Consider A28G U49C C59G, for which the self-cleavage was found to be 0.11.

As to A28G U49C U51C U67C U69A, the self-cleavage is 0.04.

With A28G G36U U69A, the self-cleavage worked out at 0.12.

For A28G U41C G52A U60C U80C, the self-cleavage worked out at 0.16.

Consider A28U C37U U48C U51A U60G, for which the self-cleavage is 0.07.

As for A28G C38U C44A U80G, the self-cleavage is 0.03.

With A28G U49C A56G A57G U72A, the self-cleavage was found to be 0.18.

For A28U A56U A77U U78A, the self-cleavage worked out at 0.5.

For the variant A28U U41G U43C A64G, the self-cleavage is 0.34.

For A28U U74A U80C, the self-cleavage was 1.23.

On to A28G U41A U48A A57G U60C, for which the self-cleavage was determined as 0.12.

A28G U49C U60A U78C: the self-cleavage came to 0.05.

As for A28G C40A U78C C79G, the self-cleavage was determined as 0.21.

Consider A28G U48C U66C U72A A75G, for which the self-cleavage turned out to be 0.07.

For A28G G36A U69C U72C, the self-cleavage stood at 0.13.

Turning to A28U A35U A57G U67C A77G, the self-cleavage came to 0.11.

As for A28U A57C U67A U69C, the self-cleavage came out at 0.1.

For A28G U41C U43A U80C, the self-cleavage is 0.37.

Consider A28G U31C U41A A45G U49C U66C A77U, for which the self-cleavage was determined as 0.04.

Regarding A28U U43G U72C, the self-cleavage was determined as 0.24.

As for A28U C32U U60G, the self-cleavage was found to be 0.08.

Turning to A28G U43C U69A, the self-cleavage was determined as 0.07.

With A28U U48A U58A U67A U72C, the self-cleavage was 0.05.

On to A28G U41C A57G, for which the self-cleavage was 0.55.

In the case of A28G U41A U80A, the self-cleavage amounted to 0.38.

Regarding A28G U41C U60C U66C U78C, the self-cleavage was found to be 0.1.

Consider A28G U48C G63U, for which the self-cleavage was found to be 0.39.

A28G U41C U54C: the self-cleavage came to 0.54.

As for A28U U60C A65G G73A C81U, the self-cleavage was 0.2.

In the case of A28G G30U U58C G63A, the self-cleavage was found to be 0.11.

Regarding A28U U31A A64G A65G U78A, the self-cleavage is 0.06.

Regarding A28U A35G U60A, the self-cleavage amounted to 0.93.

For the variant A28G U41C U43C, the self-cleavage is 0.48.

For A28G G42A U49C, the self-cleavage amounted to 0.07.

For A28G U31A A47U U67A, the self-cleavage worked out at 0.16.

Take A28G U43A A75G: the self-cleavage amounted to 0.22.

In the case of C29A A35G U41A, the self-cleavage is 0.2.

Take A28G U72G U76A: the self-cleavage stood at 0.44.

On to A28G U48A U67C, for which the self-cleavage was found to be 0.12.

Take A28G C50A U51C U67A U74A: the self-cleavage was 0.09.

As for A28G C38G U49A U72C, the self-cleavage is 0.07.

On to A28U U51C U72G, for which the self-cleavage stood at 0.65.

Consider A28G C38G A45G U51A U72A, for which the self-cleavage came to 0.05.

In the case of A28G U67C C68A, the self-cleavage turned out to be 0.17.

As to A28U C40A U48C A57G U78C, the self-cleavage worked out at 0.08.

With A28U U41A A47U U69A, the self-cleavage came to 0.05.

On to A28G U41C U72A, for which the self-cleavage stood at 0.3.

As to A28G U74C U80C, the self-cleavage came out at 1.01.

For A28U U54A A65G, the self-cleavage amounted to 0.25.

A28G U31A A56G U80C: the self-cleavage was determined as 0.39.

For A28G G30C C39U A56G U69C U78G, the self-cleavage amounted to 0.25.

Turning to A28G G30U A35U, the self-cleavage stood at 0.14.

As for A28G U41A A47G U72C, the self-cleavage was 0.05.

Regarding A28G U49C A64U, the self-cleavage was 0.3.

A28U U41C A47G U54A: the self-cleavage is 0.61.

On to A28G U54C U58C, for which the self-cleavage was 0.1.

Turning to A28U U72C U76A, the self-cleavage was 1.13.

Regarding A28U A45G U54C A75U, the self-cleavage came to 0.44.

In the case of A28U U43C U54A U67C, the self-cleavage amounted to 0.39.

Consider A28U A35G U43C A47G U60A, for which the self-cleavage worked out at 0.22.

Regarding C29A G33A A35G U69C U74C, the self-cleavage stood at 0.09.

As for A28G U54C A56U, the self-cleavage worked out at 0.17.

On to A28G U48C A56G U60C A64U U80C, for which the self-cleavage came to 0.19.
